Laboratory results reported in the supplement of paper PMC3334620.
The full ranking holds about 33,000 sequences; the median of “E-score (-0.5 to 0.5)” is about -0.012, and the highest 2% start at about 0.29. Some of the results follow.

biological target: T1, Ybr033w (UniProt P38073); assay: PBM E-score (8-mer binding enrichment) (E-score (-0.5 to 0.5)); higher = stronger / more preferred TF binding; most listed sequences are background and not binding sites; details: protein concentration: 200 nM; construct: GST-full length
T1 sequence: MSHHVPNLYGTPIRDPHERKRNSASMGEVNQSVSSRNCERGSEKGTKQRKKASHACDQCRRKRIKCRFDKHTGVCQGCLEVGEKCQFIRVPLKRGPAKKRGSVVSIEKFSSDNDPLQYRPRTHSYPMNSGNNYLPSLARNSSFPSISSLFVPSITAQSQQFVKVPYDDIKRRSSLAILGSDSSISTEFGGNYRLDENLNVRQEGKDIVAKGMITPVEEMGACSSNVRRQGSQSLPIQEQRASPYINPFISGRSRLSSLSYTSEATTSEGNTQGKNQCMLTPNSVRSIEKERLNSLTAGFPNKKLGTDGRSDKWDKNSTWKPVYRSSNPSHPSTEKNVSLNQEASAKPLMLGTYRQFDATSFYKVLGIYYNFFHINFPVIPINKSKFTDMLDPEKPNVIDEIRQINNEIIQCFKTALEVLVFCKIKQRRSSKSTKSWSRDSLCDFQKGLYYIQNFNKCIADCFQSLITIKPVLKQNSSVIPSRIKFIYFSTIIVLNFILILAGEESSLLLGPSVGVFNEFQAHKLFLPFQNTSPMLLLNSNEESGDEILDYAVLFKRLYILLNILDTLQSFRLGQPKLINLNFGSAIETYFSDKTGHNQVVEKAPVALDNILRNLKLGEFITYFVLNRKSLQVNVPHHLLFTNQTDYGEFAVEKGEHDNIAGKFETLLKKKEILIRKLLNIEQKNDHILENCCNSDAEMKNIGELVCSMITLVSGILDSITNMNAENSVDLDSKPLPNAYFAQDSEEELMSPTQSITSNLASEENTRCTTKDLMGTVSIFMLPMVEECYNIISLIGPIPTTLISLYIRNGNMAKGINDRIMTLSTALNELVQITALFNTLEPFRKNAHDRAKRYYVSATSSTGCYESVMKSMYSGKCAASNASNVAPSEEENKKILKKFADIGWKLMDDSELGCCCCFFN
Procedure: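 Universal 'all 10-mer' protein binding microarrays (Agilent AMADID 015681) probed with GST-tagged S. cerevisiae TFs (full-length or DBD) made by in vitro transcription/translation (PURExpress), about 100-200 nM. Bound TF was detected with fluorescent anti-GST. Each ungapped 8-mer (which stands for itself and its reverse complement) is scored by the PBM enrichment score (E-score), a modified Wilcoxon-Mann-Whitney statistic from -0.5 to +0.5, computed with the Universal PBM Analysis Suite. Scale: above 0.35 generally sequence-specific binding.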

Point of comparison: TGATCGAA, “PBM E-score” value -0.0706. Against it:
- CGAGCTTA — higher, -0.0148
- GCCGTCAA — higher, -0.0411
- AAGCTTGT — higher, 0.158
- GTTTGGCA — higher, -0.0616
- CTTCTGCC — lower, -0.103
- AAGGTTTG — higher, 0.227
- AGCGACAA — lower, -0.0929
- GACGGCTC — lower, -0.2
- CTGGAGCA — higher, -0.00044
- CCTATCTC — lower, -0.0727
- TATGGCAA — lower, -0.151
- AAATACCC — higher, 0.149
- CTACGTAA — higher, -0.0597
- ATGCCTGC — higher, -0.0655
- CATACAGA — higher, 0.157
- ATGGAGGC — lower, -0.199
- AAGTTCGA — higher, 0.203
- GATTAAAC — higher, 0.17
- ATGTCGTA — higher, 0.0621
- AGAACCTG — lower, -0.156
- CGTGTCCA — lower, -0.102
- TAACGATA — higher, 0.292
- AGGGACTC — lower, -0.223
- AGGGCGGA — lower, -0.231
- ACCAAGTG — lower, -0.0899
- GTCGGCGA — lower, -0.258
- CAGCTCAG — lower, -0.144
- CCTGTCCC — lower, -0.255
- ATATTTCC — higher, 0.349
- AATGGTGT — higher, 0.088
- TATGCCGA — higher, 0.0683
- ACAGCCTC — lower, -0.291
- CATTTTAG — higher, 0.234
- CGCTCCAC — lower, -0.163
- TCTTTACA — higher, 0.196
- ATGGCATG — higher, 0.0798
- AGCTAAAA — higher, 0.137
- ATTCGAAG — higher, 0.00162
- TAGAGCAA — higher, 0.0322
- AAGGCTGT — lower, -0.138
- CGCGGTAA — higher, 0.12
- AGGGCCTC — lower, -0.226
- GACCCTAC — lower, -0.198
- GGTCGAAA — lower, -0.22
- ATAGCGAT — lower, -0.15
- GGTACTCA — higher, 0.0898
- TATCACAA — higher, 0.18
- CTTTTGTC — higher, 0.0178
- GCACCATA — higher, 0.155
- CTGCCGTA — lower, -0.0876
- GGTTCGTA — higher, 0.119
- CCCTTCAC — lower, -0.122
- GCAAAGAC — higher, -0.0169
- AACAGACG — lower, -0.113
- AAACTTCG — higher, 0.0988
- GCATTCAC — higher, 0.216
- ACATCGGC — higher, -0.0427
- AAGAATAA — higher, 0.222
- ACAATAGT — higher, 0.161
- CTACATGC — higher, -0.00181
- AAGGAGCT — lower, -0.219
- GTCGTATA — higher, 0.0833
- ACGGCAAG — lower, -0.282
- CCAGACGA — lower, -0.125
- ATCTGGCA — higher, -0.0201
- ACTTGGAA — higher, 0.022
- AATGCCAC — higher, -0.0522
- AACTCAAG — higher, 0.204
- CGAAAGCG — lower, -0.174
- ACTTGGCG — lower, -0.111
- GCGACCCC — lower, -0.204
- AGTTGGTA — higher, 0.169
- AAGAATAG — higher, 0.204
- AATGGAAC — higher, 0.178
- ACCAGAGC — higher, 0.0226
- GGGACATA — higher, 0.0156
- CCTTGTCG — lower, -0.192
- ATCTCATG — higher, 0.0775
- AGGGCTCC — lower, -0.356
- AATTAAGT — higher, 0.305
- CAGATCTG — lower, -0.118
- AATTCAGA — higher, 0.177
- CGACAAAC — higher, 0.0224
- ACTGGAGC — lower, -0.219
- CGTCGTAC — higher, -0.016
- GGCACGAA — higher, 0.0344
- GGAATTCA — higher, 0.288
- ACAAAACT — higher, 0.153
- CAAAAGCG — higher, -0.0333
- TGACCTCA — lower, -0.17
- CACGGGGG — lower, -0.32
- GGAGTACA — lower, -0.0776
- CAATGCTG — higher, 0.089
- CTTGGCAA — lower, -0.103
- GAATAGAC — higher, -0.054
- GTTGATCA — higher, 0.125
- CCAAAAGG — higher, 0.00511
- ACATAATA — higher, 0.247
- CCTCAATC — higher, 0.0546
- ACTGATGA — higher, 0.106
- GAAACCGA — lower, -0.0906
- GTGGGTGA — higher, -0.00057
- AATCTAGG — higher, 0.135
- AGCGTGTA — lower, -0.0942
- ACAGTGTG — higher, 0.024
- CATCGGAG — higher, -0.0156
- CTGATCAA — higher, -0.00675
- CTGCAAGC — lower, -0.102
- CCAGCAGA — higher, 0.00492
- TATAAACA — higher, 0.247
- TATGTGCA — higher, -0.0361
- CGCTGACG — lower, -0.218
- AATCTGCC — higher, 0.138
- GTCTCCGA — higher, 0.0658
- ACTGGCCA — lower, -0.174
- AAATTAAA — higher, 0.339
- ACGAAACA — higher, 0.109
- GTCTGCCA — lower, -0.11
- AACGTCTT — higher, 0.0136
- GTACCCTA — lower, -0.0808
- GCATCAGA — higher, 0.133
- CCCCGGAG — higher, -0.0119
- AATTCTCT — lower, -0.229
- GTCACAAA — higher, 0.032
- GCCGCTCC — lower, -0.391
- ACACCTGT — higher, -0.021
- CAGTTTGA — higher, 0.206
- CGCTGCAA — higher, 0.0965
- AAGGCGCT — higher, -0.05
- CCGTTCTC — higher, -0.043
- CGCAGCCG — lower, -0.311
- AACTGCTG — higher, 0.0765
- AGAGGGTA — higher, -0.0604
- AAATAGGA — higher, 0.16
- CACTGACG — lower, -0.253
- GATAATTA — higher, 0.361
- CGCTCAAA — higher, 0.061
- CGTTAGCC — lower, -0.0947
- TAAGCGGA — higher, 0.00991
- ACGCCACT — higher, -0.0677
- CCCAACCC — higher, -0.0507
- CAGAACTA — higher, -0.0173
- ATCCAATA — higher, 0.157
- AGTGTACG — higher, -0.041
- AGCTACCG — lower, -0.111
- CGCCGGTC — lower, -0.177
- CCGAGCCC — lower, -0.299
- ATAGTTAA — higher, 0.189
- GTTGAGCA — higher, -0.0327
- GAAAGGAC — higher, 0.107
- GACAGCTC — lower, -0.234
- GATTGTGA — higher, 0.111
- TACTCTCA — higher, 0.185
- CGAAGCGC — higher, -0.0184
- GACAGGCC — lower, -0.303
- CGAAAGGC — lower, -0.132
- GCGGCAGA — lower, -0.266
- AGTTTGCC — higher, 0.107
- AAAATTGA — higher, 0.131
- TGGTCTAA — higher, -0.0524
- CTACTGTA — higher, 0.187
- CCCTACCA — lower, -0.0965
- AACCGCAT — higher, 0.0575
- AGTTCGCA — higher, -0.053
- ATCGCGAC — higher, 0.0512
- CCCAACGG — lower, -0.12
- AGAGGACA — higher, -0.0337
- ATCTAACC — higher, 0.0416
- GTGTCATA — higher, 0.164
- CGAAGGCG — higher, -0.0641
- ACTAAACT — higher, 0.115
